Hit rate of the full screen: of about 39,000 compounds, about 220 (0.56%) showed activity. The list shows a part of the results.
system: Escherichia coli K-12 BW25113; test: relative growth (OD600 normalised to plate interquartile mean) (fraction); higher = less growth inhibition, active = 0.2 or less; details: 50 µM; LB; incubation time: overnight (16-24 h)
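Also: static incubation at 37 °C against the wild-type strain, values averaged over two biological replicates.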

Compound | relative growth
CC(=O)Oc1ccn(C)c(=O)c1C#N | inactive: 1
Cc1ccc(S(=O)(=O)N(C)C[C@H]2Oc3ccc(NS(=O)(=O)c4ccccc4)cc3C(=O)N([C@@H](C)CO)C[C@H]2C)cc1 | inactive: 1.02
C[C@H](CO)N1C[C@H](C)[C@H](CN(C)Cc2ccc(C(=O)Nc3ccccc3N)cc2)Oc2ccc(NC(=O)Nc3ccc(C(F)(F)F)cc3)cc2C1=O | inactive: 0.986
CC(C=CC1=C(C)CCCC1(C)C)=CC=CC(C)=CCO | inactive: 0.993
Cc1ccc(S(=O)(=O)N(C)C[C@H]2OCCCC[C@H](C)Oc3ccc(NC(=O)Nc4cccc5ccccc45)cc3C(=O)N([C@@H](C)CO)C[C@H]2C)cc1 | inactive: 1.03
COc1cccc(-c2ccc3c(c2)O[C@H](CN(C)Cc2cncnc2)[C@H](C)CN([C@H](C)CO)S3(=O)=O)c1 | inactive: 1
CCCNC(=O)N1C[C@H](O)COC[C@@H]2O[C@@H](CC(=O)N3CCOCC3)CC[C@H]21 | inactive: 0.995
C[C@H](CO)N1C[C@H](C)[C@@H](CN(C)Cc2ccc(-c3ccccc3)cc2)Oc2ccc(NS(=O)(=O)c3ccccc3)cc2C1=O | inactive: 0.838
Cc1ccc(S(=O)(=O)NCC[C@@H]2CC[C@@H](NS(=O)(=O)c3ccccc3Cl)[C@H](CO)O2)cc1 | inactive: 1
Cc1noc(C)c1NC(=O)N(C)C[C@@H]1OCCCC[C@H](C)Oc2ccc(NC(=O)c3ccccc3)cc2C(=O)N([C@@H](C)CO)C[C@@H]1C | inactive: 0.954
C[C@@H]1CCCCO[C@H](CN(C)C(=O)C2CCCCC2)[C@H](C)CN([C@H](C)CO)C(=O)c2cc(NS(=O)(=O)c3cccs3)ccc2O1 | inactive: 1.01
NCC[C@@H](Cc1ccccc1)c1ccc2c(c1)OCO2 | inactive: 1.04
CN(C)C(=O)C[C@@H]1CC[C@H]2[C@@H](COC[C@@H](O)CN2S(=O)(=O)c2ccccc2)O1 | inactive: 0.994
COc1ccc(S(=O)(=O)N(C)C[C@H]2Oc3cc(C4=CCCC4)ccc3S(=O)(=O)N([C@@H](C)CO)C[C@H]2C)cc1 | inactive: 1.02
COc1ccc(NC(=O)Nc2ccc3c(c2)[C@H]2C[C@@H](CC(=O)NCC(F)(F)F)O[C@@H](CO)[C@H]2O3)cc1 | inactive: 0.963
C[C@H](CO)N1C[C@H](C)[C@H](CN(C)C(=O)NC2CCCCC2)Oc2ccc(NC(=O)c3ccncc3)cc2CC1=O | inactive: 0.984
C[C@@H]1CCCCO[C@@H](CN(C)Cc2ccc3c(c2)OCO3)[C@@H](C)CN([C@H](C)CO)C(=O)c2cc(NS(=O)(=O)c3ccc(F)cc3)ccc2O1 | inactive: 1
C[C@@H]1CN([C@@H](C)CO)C(=O)c2cccc(NC(=O)CCCCCC(=O)Nc3ccccc3N)c2O[C@H]1CN(C)Cc1ccccc1 | inactive: 0.992
COCCOC(=O)N1C(=O)[C@@]2(c3cc(C#Cc4ccc(OC)cc4)ccc31)[C@H](c1ccc(OCCO)cc1)N1[C@H](c3ccccc3)[C@H](c3ccccc3)OC(=O)[C@H]1[C@@H]2C(=O)N1CCN(c2ncccn2)CC1 | inactive: 1.05

Compound | relative growth
Cc1ccc(S(=O)(=O)N(C)C[C@@H]2OCCCC[C@H](C)Oc3ccc(NS(=O)(=O)c4ccc(F)cc4)cc3C(=O)N([C@@H](C)CO)C[C@H]2C)cc1 | inactive: 1.02
Cn1nnnc1-c1ccc(N)cc1 | inactive: 1.01
Cc1noc(C)c1NC(=O)Nc1ccc2c(c1)C(=O)N([C@@H](C)CO)C[C@@H](C)[C@@H](CN(C)S(=O)(=O)c1ccccc1)O2 | inactive: 0.989
CC(C)N=c1cc2n(-c3ccc(Cl)cc3)c3ccccc3nc-2cc1Nc1ccc(Cl)cc1 | inactive: 0.897
COc1cc(C(=O)N2CCC(N3CCN(C)CC3)CC2)ccc1Nc1ncc2c(n1)N(C)c1ccccc1C(=O)N2C | inactive: 1.03
O=C(NO)c1ccc(-c2cn(CC(=O)N3CCOCC3)nn2)cc1 | inactive: 0.844
O=C1O[C@@H](c2ccccc2)[C@@H](c2ccccc2)N2[C@@H](c3ccc(OCCO)cc3)[C@]3(C(=O)Nc4ccc(C#CCCO)cc43)[C@@H](C(=O)N3CCCCCCC3)[C@H]12 | inactive: 1.01
C[C@H](CO)N1C[C@H](C)[C@@H](CN(C)S(=O)(=O)c2cccs2)Oc2c(NC(=O)c3ccncc3)cccc2C1=O | inactive: 0.999
C[C@@H]1CN([C@@H](C)CO)C(=O)c2cc(NS(=O)(=O)c3cn(C)cn3)ccc2O[C@@H]1CN(C)C(=O)Nc1ccccc1 | inactive: 0.987
C[C@H](CO)N1C[C@H](C)[C@@H](CN(C)C(=O)C2CCCCC2)Oc2cc(C#C[C@@H](C)O)ccc2S1(=O)=O | inactive: 1.02
O=C(C[C@@H]1C[C@@H]2c3cc(NC(=O)Cc4ccncc4)ccc3O[C@@H]2[C@@H](CO)O1)NCCN1CCCCC1 | inactive: 1.01
CC(C)C#Cc1ccc2c(c1)O[C@@H](CN(C)C(=O)c1cnccn1)[C@@H](C)CN([C@@H](C)CO)S2(=O)=O | inactive: 1.02
C[C@H]1CCCCO[C@H](CN(C)Cc2ccc(C(F)(F)F)cc2)[C@@H](C)CN([C@@H](C)CO)C(=O)c2cc(NC(=O)Cc3ccccc3)ccc2O1 | inactive: 0.921
C[C@@H]1CN([C@H](C)CO)S(=O)(=O)c2ccc(C#Cc3ccncc3)cc2O[C@H]1CN(C)S(=O)(=O)c1ccc(F)cc1 | inactive: 1.03
COCc1cn(CC[C@H]2CC[C@@H](NC(=O)CCN3CCCCC3)[C@H](CO)O2)nn1 | inactive: 0.988
C[C@H]1CN([C@@H](C)CO)C(=O)c2cc(NS(=O)(=O)c3ccccc3)ccc2O[C@H]1CN(C)S(=O)(=O)c1cccs1 | inactive: 1.02
C[C@H]1CN([C@@H](C)CO)C(=O)c2cc(NC(=O)Nc3cccc4ccccc34)ccc2O[C@@H]1CN(C)C(=O)Nc1ccc2c(c1)OCO2 | inactive: 1.01
C=CCC[C@H](Cc1ccc(F)cc1)C(=O)OC[C@@H](Cc1c[nH]c2ccccc12)NC(=O)[C@@H](CC=C)CC(=O)N(CCO)Cc1ccccc1 | inactive: 1.06
Cc1csc2sc(C(=O)Oc3ccc(Cl)cc3)c(C)c12 | inactive: 1.04

Source: the supplement of paper PMC9446081
